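Tested at 5 concentrations; 48 h exposure; 96-well plates; endpoints linearly interpolated, else capped at highest concentration. The concentration for 50% growth inhibition is given as GI50.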 Some entries of the source have several records that differ or are many. This is not the full list of results. There may be further records. For some of these results: The values listed for one entry are repeats across runs, samples, wells, individuals or studies. A tag in brackets gives the origin of a value. A, B and so on number the origins entry by entry.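 Definition used: TGI = concentration required for complete inhibition of growth.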 For some of these results: The tests behind the records often covered other concentration ranges, which the source does not state; some values may only mark the edge of a range.
What was measured:
Experiment in all cases: DTP human tumour cell line panel, 48 h
[1] = test system: RXF 393 renal
[2] = test system: SF-539 CNS
[3] = test system: SK-MEL-28 melanoma
[4] = test system: SK-MEL-2 melanoma
[5] = test system: M14 melanoma
[6] = test system: SNB-75 CNS
[7] = test system: DMS 273 small cell lung
[8] = test system: SK-MEL-5 melanoma
[9] = test system: UACC-62 melanoma
[10] = test system: XF 498 CNS
[11] = test system: SF-268 CNS
[12] = test system: NCI-H460 lung
[13] = test system: SK-OV-3 ovarian
[14] = test system: KM12 colon
[15] = test system: HCT-116 colon
[16] = test system: RPMI-8226 leukemia
[17] = test system: CCRF-CEM leukemia
[18] = test system: HCT-15 colon
[19] = test system: HL-60(TB) leukemia
[20] = test system: EKVX NSCLC
[21] = test system: BT-549 breast
[22] = test system: SN12C renal
[23] = test system: CAKI-1 renal
[24] = test system: OVCAR-5 ovarian
[25] = test system: 786-0 renal

Structure (SMILES): CCCCCC(=O)N[C@@H](c1ccco1)[C@@H](O)C(=O)O[C@H]1C[C@@]2(O)[C@@H](OC(=O)c3ccccc3)[C@@H]3[C@]4(OC(C)=O)CO[C@@H]4C[C@H](O)[C@@]3(C)C(=O)[C@H](OC(C)=O)C(=C1C)C2(C)C
- TGI [1]: 20.9 nM and > 25 µM

Structure (SMILES): COC(=O)NC1C(C)OC(OC2C/C=C(/C)C3C=CC4C(OC5CC(OC6CCC(OC7CC(O)C(OC8CCC(O)C(C)O8)C(C)O7)C(C)O6)C(OC(C)=O)C(C)O5)C(C)CC(C)C4C3(C)/C(O)=C3/C(=O)OC4(CC(C=O)=CC(O)C4/C=C\2C)C3=O)CC1(C)[N+](=O)[O-] (stereo not drawn)
- TGI [2]: 1.23 µM and 78.1 nM
- TGI [3]: 1.89 µM and 135 nM
- TGI [4]: 2.1 µM and 200 nM

Structure (SMILES): COc1cc2c(c(OC)c1OC)-c1ccc(SC)c(=O)cc1[C@@H](NCc1ccc(F)cc1)CC2
- TGI [5]: < 7.5 nM and 10.2 µM
- TGI [6]: 75 µM and 30.2 nM
- TGI [7]: < 7.5 nM and 7.33 µM
- TGI [8]: < 7.5 nM and 10.9 µM
- TGI [9]: < 7.5 nM and 11.2 µM
- TGI [10]: < 7.5 nM and 6.06 µM
- TGI [11]: 43.9 µM and 1.75 µM
- TGI [12]: 75 µM and 3.76 µM
- TGI [13]: 10.9 µM and 364 nM
- TGI [14]: 9.16 nM and 416 nM
- TGI [4]: < 7.5 nM and 25.9 µM

Structure (SMILES): COc1ccccc1/C=C(/C)[N+](=O)[O-]
- TGI [15]: > 100 µM [sample A, 1 test] and 4.95 µM [sample B, 1 test]
- TGI [16]: 960 nM [sample A, 1 test] and > 100 µM [sample B, 1 test]
- TGI [12]: > 100 µM [sample A, 1 test] and 4.84 µM [sample B, 1 test]
- GI50 [17]: 404 nM [sample A, 1 test] and 13 nM [sample B, 1 test]

Structure (SMILES): C=C1C[C@H]2C=Nc3cc(OCCCOc4cc5c(cc4OC)C(=O)N4CC(=C)C[C@H]4C=N5)c(OC)cc3C(=O)N2C1
- TGI [18]: 976 nM and > 51.7 µM
- TGI [19]: 2.43 nM and > 4.64 µM
- TGI [20]: 457 nM [1 test] and 5.06 µM [mean of 3 tests]
- TGI [11]: 56.7 nM and 2.22 µM
- TGI [21]: 48.8 nM and 560 nM
- TGI [22]: 17.5 nM and 2.63 µM
- TGI [23]: 714 nM and 37.2 nM
- TGI [24]: 45.5 nM [1 test] and 1.19 µM [mean of 3 tests]
- TGI [25]: 16.2 nM and > 100 µM

Source: PubChem BioAssay (NCI)
